Laboratory results taken from the RNAGym collection of RNA variant scans (doi:10.1073/pnas.2313332121).
Variants at the background level are over-represented here.

B1: TPR 5TU (parent)
chain: GGAUCUUCUCGAUCUAACAAAAAAGACAAAUCUGCCACAAAGCUUGAGAGCAUCUUCGGAUGCAGAGGCGGCAGCCUUCGGUGGCGCGAUAGCGCCAACGUUCUCAACUAUGACACGCAAAACGCGUGCUCCGUUGAAUGGAGUUUAUCAUG

Variants of: B1
Assay: polymerase ribozyme fitness, log enrichment relative to wild type (log ratio); higher = more active; in vitro selection for triplet polymerase activity
Summary of the method: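 To select mutant libraries of each subunit of a heterodimeric triplet polymerase ribozyme, built by PCR and transcribed, each was annealed with a biotinylated primer, partner subunit and triplets, then incubated frozen at −7 °C. Extended constructs were gel-excised, captured on streptavidin beads and amplified by RT-PCR, in one round carried out in triplicate. Illumina sequencing of input and output libraries kept genotypes with ≥10 input reads and ≥1 read per output. Fitness is the base-2 logarithm of genotype enrichment relative to wild-type enrichment, from inverse-variance-weighted replicate averages.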

| Variant | polymerase ribozyme fitness (log ratio) |
| --- | --- |
| A22U U31A U53G C79G C95G U130G G141C | ≤ -4.2 |
| A22U U31C C35U U90G A106C | ≤ -4.2 |
| A22U U33G C87G A106G | ≤ -4.2 |
| A22U U44A C54G A106G | ≤ -4.2 |
| A22U U45A A47C G58A G65U G68A C95U A150U | ≤ -4.2 |
| A22U U53A G74A C95U U135C | ≤ -4.2 |
| A22U U53A G88A C116G A142G A150C | ≤ -4.2 |
| A22U U55A G94A A98U U135A | -2.29 |
| A22U U77G C85G G92U | ≤ -4.2 |
| A23C A24G G48C A107G | ≤ -4.2 |
| A23C A24U C87A C93G C95A G143C | ≤ -4.2 |
| A23C A26C | ≤ -4.2 |
| A23C A26C A60U U134G | ≤ -4.2 |
| A23C A26U U53A C85A G136U | ≤ -4.2 |
| A23C A28C G48U C63G G80C U101G C131U | ≤ -4.2 |
| A23C A28G A37U G68C C72A G86A C87A | ≤ -4.2 |
| A23C A29C A97G G141C | ≤ -4.2 |
| A23C A29G A39U U55A G86U | ≤ -4.2 |
| A23C A29G G81A G84U A122G G126A U135A | ≤ -4.2 |
| A23C A29U G46C C96U U135C U151C | ≤ -4.2 |
| A23C A30U A49G G59U A66U G74U A91G C99A | ≤ -4.2 |

| Variant | polymerase ribozyme fitness (log ratio) |
| --- | --- |
| A23C A30U G58C G59C G84A A119G U148A | ≤ -4.2 |
| A23C A37C U53A A64C U90C C96G U101G G126A | ≤ -4.2 |
| A23C A37C U56C G84U C131U | ≤ -4.2 |
| A23C A39G G58A G65A C132A G136C U148G | ≤ -4.2 |
| A23C A39U G46U U90A C96A C99U C114G G141C | ≤ -4.2 |
| A23C A40U A91G G94A | ≤ -4.2 |
| A23C A40U C95U U134A U151A | ≤ -4.2 |
| A23C A40U G59U G62C G83A U135A U146A | ≤ -4.2 |
| A23C A40U U77A C87G C96U C131U | ≤ -4.2 |
| A23C A41G A47U A52G U82A C85A C118G | ≤ -4.2 |
| A23C A41U G59C C75U U101A | ≤ -4.2 |
| A23C A47C G59A G68A C85A C96U U148A | ≤ -4.2 |
| A23C A49C A52C C87G G94U A122G C125A U151C | ≤ -4.2 |
| A23C A49C C54A C87U A97G U144G | ≤ -4.2 |
| A23C A49U A64C C96A U144A | ≤ -4.2 |
| A23C A52G G84C G86A A107U G128C | ≤ -4.2 |
| A23C A52U C76A C85G G88U C116G | ≤ -4.2 |
| A23C A64G G70C | ≤ -4.2 |
| A23C A73G G86A U109A | ≤ -4.2 |
| A23C A91G A119U A121C A150C | ≤ -4.2 |
| A23C A91U C103G | ≤ -4.2 |

| Variant | polymerase ribozyme fitness (log ratio) |
| --- | --- |
| A23C C32A A47C U78G C95U C96A | ≤ -4.2 |
| A23C C32U C76A C125U | ≤ -4.2 |
| A23C C32U U56G C123U A142U U144G | ≤ -4.2 |
| A23C C32U U61A C76A C85G C116A A121U U144A | ≤ -4.2 |
| A23C C35A A73C A91G A98G A121U | ≤ -4.2 |
| A23C C35A A73G A106G C149U | ≤ -4.2 |
| A23C C35A G68U C96A A106G G133C | ≤ -4.2 |
| A23C C35A U55C A73G C96U C116U A121U U148C | ≤ -4.2 |
| A23C C36U A64C U144G | ≤ -4.2 |
| A23C C38U A39U U82G C87A | ≤ -4.2 |
| A23C C38U C93A A142C | ≤ -4.2 |
| A23C C43A U55A U56A G70A G88C U102G G141A | ≤ -4.2 |
| A23C C43U C76G C96G | ≤ -4.2 |
| A23C C51A C79A | ≤ -4.2 |
| A23C C51A U55A C87A C99G A115U U144C | ≤ -4.2 |
| A23C C51U G58A C75U C85G G143A U145G | ≤ -4.2 |
| A23C C51U U55A G83U G133C | ≤ -4.2 |
| A23C C54A C87U G143C | ≤ -4.2 |
| A23C C54G C87A A91U | ≤ -4.2 |
| A23C C54U G59U G92C U104C C118U | ≤ -4.2 |
| A23C C57G G58A A64C C72G G80A G86A U145G A150C | ≤ -4.2 |

| Variant | polymerase ribozyme fitness (log ratio) |
| --- | --- |
| A23C C57U C76U A89U C93U | ≤ -4.2 |
| A23C C57U C85U G86A C125A U144G | ≤ -4.2 |
| A23C C76A C93A C149G | ≤ -4.2 |
| A23C C76G C103G C125A C132G | ≤ -4.2 |
| A23C C87A U139G | ≤ -4.2 |
| A23C C87U C93U C95G C96G | ≤ -4.2 |
| A23C C96U C129A U130G U139A | ≤ -4.2 |
| A23C C108G A115G A138U U148C | ≤ -4.2 |
| A23C C125U C131U G141C | ≤ -4.2 |
| A23C G25U U53G G94A G117C A137C | ≤ -4.2 |
| A23C G34U G83U C131U | ≤ -4.2 |
| A23C G46A G86U C99G A110G | ≤ -4.2 |
| A23C G48A G67C U135C | ≤ -4.2 |
| A23C G50C G59A C79U G83U A89U C95U C132U A142C | ≤ -4.2 |
| A23C G50C U101G A147U | ≤ -4.2 |
| A23C G58A G62A C87A C116G U135G | ≤ -4.2 |
| A23C G67A A73U C96U G140C | ≤ -4.2 |
| A23C G68U C116G A137C | ≤ -4.2 |
| A23C G83A | ≤ -4.2 |
| A23C G83A C116A G152A | ≤ -4.2 |
| A23C G133A U135C G141A A150C | ≤ -4.2 |
